Results as given in PubChem BioAssay AID485281 (National Center for Advancing Translational Sciences (NCATS), 2010).
Hit rate of the full screen: of about 350,000 compounds, about 260 (0.074%) were called active. Inconclusive results, whose numbers are uncertain, are shown with a selection of clear calls. The call rests on the fitted dose curve; in most records, active means well fitted inhibition curve with a large enough effect; inconclusive means small, poorly fitted or top-dose-only effect; inactive means no such curve, though single readings can be large or run the other way. Potencies of inconclusive entries are doubtful fits and often do not repeat.

Target: Ferritin light chain (Equus caballus) (UniProt P02791)
Test: qHTS Assay for Identification of Novel General Anesthetics; further: nearly all actives have a fitted effect of over 20% in size
Conditions: apoferritin/1-aminoanthracene competitive binding, fluorescence; series mostly up to 77.5 µM
How it was run: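 Apoferritin-based anesthetic binding model; compound displacement of fluorescent 1-AMA measured as endpoint fluorescence after 10 minutes at room temperature, scaled to free-ligand and complex controls.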
Potency means the concentration at half of the fitted maximal effect; tags describe the fitted curve by direction and shape.

UniProt P02791, sequence (P02791 whole entry, looked up): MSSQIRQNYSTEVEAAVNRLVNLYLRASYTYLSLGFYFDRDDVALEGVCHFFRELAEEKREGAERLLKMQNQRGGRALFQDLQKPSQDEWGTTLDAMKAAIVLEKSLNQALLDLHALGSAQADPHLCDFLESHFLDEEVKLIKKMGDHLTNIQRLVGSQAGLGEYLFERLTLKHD

Row | SMILES | Potency
1 | CCOc1ccc(NC(=O)C(C)Sc2nc3ncccc3o2)cc1 (configuration not stated) | inactive
2 | CC1(C)CC(=O)C(C=Nc2ccccc2Sc2ccccc2)=C(O)C1 | inconclusive: 39.8 µM [inhibitor, partial curve]
3 | COc1cc(/C=N/NC(=O)NC2CCCCC2)ccc1O | inactive
4 | CCOC(=O)CSc1nnc(SCCN2C(=O)c3ccccc3C2=O)s1 | inconclusive: 44.7 µM [inhibitor, single point]
5 | O=C(CN(C(=O)c1ccco1)c1cccc(F)c1)NCc1ccc(F)cc1 | inconclusive: 22.4 µM [inhibitor, partial curve]
6 | C/C(Cc1ccccc1)=N\NC(=O)CNC(=O)c1ccccc1Cl | inconclusive: 12.6 µM [inhibitor, partial curve]
7 | Brc1ccc(-c2nnc(-c3ccccc3)c(N3CCSCC3)n2)cc1 | inconclusive: 35.5 µM [inhibitor, partial curve]
8 | Cc1nn(-c2nnc(NCc3ccccc3)nn2)c(C)c1Br | inconclusive: 28.2 µM [inhibitor, partial curve]
9 | O=C(CCN1C(=O)C2C3C=CC(C3)C2C1=O)Oc1ccc2ccccc2c1 (configuration not stated) | inconclusive: 31.6 µM [inhibitor, partial curve]
10 | CC1CC(C)CN(C(=O)COc2ccc([N+](=O)[O-])cc2Cl)C1 (configuration not stated) | inconclusive: 35.5 µM [inhibitor, single point]
11 | CCN1CCCC1CNCC(O)COc1ccc(C(C)(C)C)cc1C (configuration not stated) | inconclusive: 31.6 µM [inhibitor, partial curve]
12 | COc1ccc(NC(=O)CN(C)C(=O)c2cc3c(s2)CCC(C)C3)cc1 (configuration not stated) | inconclusive: 35.5 µM [inhibitor, partial curve]
13 | Cc1cc(C)n(CC(O)Cn2ccc3ccccc32)n1 (configuration not stated) | inconclusive: 15.8 µM [inhibitor, partial curve]
14 | Cc1ccc(NC(=O)CSc2nc(CSc3ccc(C)cc3)cc(=O)[nH]2)cc1 | inconclusive: 10 µM [inhibitor, partial curve]
15 | COc1cccc(NC(=S)NCc2ccc3c(c2)cc(C)n3C)c1 | inconclusive: 20 µM [inhibitor, partial curve]
16 | C=CCn1c(SCc2nc3scc(-c4ccccc4)c3c(=O)[nH]2)nnc1-c1ccccc1F | inconclusive: 14.1 µM [inhibitor, partial curve]
17 | CCOCCCN(CCC#N)S(=O)(=O)c1ccc(S(=O)(=O)N2CCCC2)cc1 | inactive
18 | CCOC(=O)C1=C(c2ccccc2)NC(=O)NC1c1cc(Br)c(O)c(OC)c1 (configuration not stated) | inconclusive: 35.5 µM [inhibitor, partial curve]
19 | CC1(C(=O)Nc2ccccc2)Cc2ccccc2C(=O)O1 (configuration not stated) | inconclusive: 35.5 µM [inhibitor, partial curve]
20 | CC(C(=O)Nc1ccccn1)c1ccccc1 (configuration not stated) | inconclusive: 28.2 µM [inhibitor, partial curve]
21 | Cc1cc(C)cc(NC(=O)Cn2c(=O)n(Cc3ccc4c(c3)OCO4)c(=O)c3oc4ccccc4c32)c1 | inactive

Row | SMILES | Potency
22 | CCN(CC)C(=O)Cc1c(O)c2ccccc2[nH]c1=O | inactive
23 | Cc1ccccc1C(=O)N1CCN(c2ccc(NC(=S)NC(=O)c3ccco3)cc2)CC1 | inconclusive: 25.1 µM [inhibitor, partial curve]
24 | Cc1ccc(NC(=O)c2cc(=O)c3ccccc3o2)cc1S(=O)(=O)N1CCCCC1 | inconclusive: 8.91 µM [inhibitor, partial curve]
25 | Cc1ccc(-c2nc(CS(=O)(=O)CC(=O)NC3CCCCC3C)c(C)o2)cc1 (configuration not stated) | inconclusive: 5.62 µM [inhibitor, partial curve]
26 | CCC(Sc1nc(C)cc(C)n1)C(=O)NC1=NN=C(c2ccc(C)cc2)CS1 (configuration not stated) | inconclusive: 39.8 µM [inhibitor, partial curve]
27 | Cc1ncc(CN2CCCC(C(=O)Nc3ccc(-c4cccc(F)c4)cc3)C2)n1C (configuration not stated) | inconclusive: 35.5 µM [inhibitor, partial curve]
28 | O=C(CCNc1ccc(Cl)c(C(F)(F)F)c1)c1ccco1 | inconclusive: 28.2 µM [inhibitor, partial curve]
29 | C=CCNc1cnn(-c2ccc(C)cc2)c(=O)c1Sc1ccc(C)cc1 | inconclusive: 25.1 µM [inhibitor, partial curve]
30 | O=C(CN1C(=O)C2C3C=CC(C4CC34)C2C1=O)OCC(=O)c1ccccc1 (configuration not stated) | inconclusive: 50.1 µM [inhibitor, single point]
31 | COc1ccc(/C=C2/C(=O)N=C3SCCN32)cc1 | inconclusive: 31.6 µM [inhibitor, single point]
32 | Cc1ccc(C(=O)CSc2nnc(CNc3ccc(F)cc3)o2)cc1 | inconclusive: 25.1 µM [inhibitor, partial curve]
33 | O=C(O)c1cc(S(=O)(=O)N2CCN(C(c3ccccc3)c3ccccc3)CC2)ccc1Cl | inactive
34 | C/C(CCc1ccc2c(c1)OCO2)=N\NC(=S)NC(C)C | inactive
35 | O=C(c1ccc(S(=O)(=O)N2CCCCCC2)cc1)N(c1ccccn1)C1CCCCC1 | inconclusive: 25.1 µM [inhibitor, partial curve]
36 | CC(C)OCC1CC(CC(=O)Nc2ccc([N+](=O)[O-])cc2)C(=O)O1 (configuration not stated) | inconclusive: 35.5 µM [inhibitor, partial curve]
37 | Cn1c(-c2sc3ccccc3c2Cl)n[nH]c1=S | inconclusive: 39.8 µM [inhibitor, partial curve]
38 | COc1cc(S(=O)(=O)N2CCOCC2)ccc1NC(=O)CSc1nnc(N)s1 | inconclusive: 56.2 µM [inhibitor, single point]
39 | O=C1/C(=C/Nc2ccc3c(c2)OCO3)CCc2ccccc21 | inconclusive: 44.7 µM [inhibitor, partial curve]
40 | O=C(COC(=O)c1ccccc1Br)NCCC1=CCCCC1 | inconclusive: 22.4 µM [inhibitor, partial curve]
41 | O=C(CSc1ccc2ccccc2c1)Nc1ccncc1 | inconclusive: 35.5 µM [inhibitor, partial curve]
42 | CCN(CC)S(=O)(=O)c1ccc(S(=O)(=O)Nc2ccc3c(c2)oc2ccccc23)cc1 | inconclusive: 31.6 µM [inhibitor, partial curve]
